# Measured values reported in ChEMBL document CHEMBL1201862, “PubChem BioAssay data set” (2004).
#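 These data come from cells grown in 96-well plates and exposed to compound for 48 hours at five concentrations. The concentration for 50% growth inhibition is given as GI50.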 Activity calls are given as the source filed them. Rule as the data show it: active = GI50 up to about 1.1 µM and inactive = higher.
# System: NCI-H322M
# Assay: NCI anticancer screen, dose series, 48 h
row,Compound,GI50
1,O=C(O)c1ccc(C(=O)Nc2cccc3ccccc23)c(C(=O)O)c1,inactive: > 100 µM
2,O=C(CCCc1ccccn1)c1ccccc1,inactive: > 100 µM
3,O=C(O)c1ccc(C(=O)c2ccccc2C(=O)O)cc1C(=O)O,inactive: > 100 µM
4,COc1cc2c(cc1OC)C(=O)/C(=C/c1ccc(O)cc1)CC2,inactive: > 10 µM
5,COC(=O)C(=O)C(C(=O)C(=O)Nc1ccc(C)cc1)c1nc2ccc(C(=O)c3ccccc3)cc2nc1O (stereo not drawn),inactive: > 100 µM
6,ClC(Cl)(Cl)C(N1CCN(c2ccccc2)CC1)N1CCN(c2ccccc2)CC1,inactive: > 100 µM
7,CN(C)Cc1cc(Cl)c(O)c(CN(C)C)c1,inactive: > 100 µM
8,O=C(O)C1(Nc2ccc(Cl)cc2)CCCC1,inactive: > 100 µM
9,COC(=O)C1=CS/C(=C2\S[C@@H]3[C@H](S2)[C@H]2C=C[C@@H]3C2)S1,inactive: > 100 µM
10,O=C(NNC(=O)c1csc(NC(=S)NC2CCCCC2)n1)c1ccccc1,inactive: 5.64 µM
11,C1CSCCCSCCCSCCCSCCCSC1,inactive: 44.3 µM
12,CC(C)(C)OC/C=C1\C(=O)O[C@H]2C[C@@H](O[Si](C)(C)C(C)(C)C)C[C@@H]12,inactive: > 100 µM
13,CCOC(=O)c1cc2c3c(cc(OC)c2[nH]1)N(C(=O)OCC)CC3,inactive: > 100 µM
14,O=c1c2ccccc2n2c(-c3ccccc3O)nnc2n1-c1ccccc1,inactive: > 100 µM
15,C/C=C(/COC(C)=O)C(=O)OC1C=C(C=O)C(C)(C)C=C1C (stereo not drawn),inactive: > 100 µM
16,CC(=O)N1N=C(N)CC1=O,inactive: > 100 µM
17,O=C(N/N=C(/c1nc2ccc([N+](=O)[O-])cc2[nH]c1=O)C(O)c1ccc([N+](=O)[O-])cc1)c1ccncc1 (stereo not drawn),inactive: > 100 µM
18,O=C1N=C(Nc2ccccc2Cl)SC1C(=O)Nc1ccc([N+](=O)[O-])cc1[N+](=O)[O-] (stereo not drawn),inactive: > 100 µM
19,CC(C)(C)C(=O)Nc1cccc2oc(-c3ccccc3)cc12,inactive: > 100 µM
20,CCCCCCCCCCCCCCCCOC[C@@H](COC(c1ccccc1)(c1ccccc1)c1ccccc1)O[PH](=S)OC (stereo partly drawn),inactive: 2.9 µM
21,O=C1CCC2(c3ccccc3)Nc3ncccc3N12 (stereo not drawn),inactive: > 100 µM
22,COc1cc(S(=O)(=O)Nc2nc(-c3ccc(/N=C/c4ccccc4O)cc3)cs2)ccc1Cl,inactive: 36.2 µM
23,CC1(CC2=C(C(=O)NCCO[Si](C)(C)C(C)(C)C)C3(OCCO3)C2=O)OCCO1,inactive: > 100 µM
24,COc1cc2c(cc1OC)C1c3ccccc3CCN1CC2 (stereo not drawn),inactive: > 100 µM

row,Compound,GI50
1,C=C1CCC(O)C/C1=C/C=C1\CCCC2(C)C1CCC2C(C)CCCC(C)C (stereo not drawn),inactive: 34.6 µM
2,O=c1nc2n(CCO)c(-c3ccccc3)c(-c3ccccc3)nc-2c(=O)[nH]1,inactive: > 100 µM
3,O=C1OC2C(O)C(=O)OC2C1O (stereo not drawn),inactive: > 100 µM
4,O=C(COc1ccc(/C=C/C(=O)c2ccc(Cl)cc2)cc1)Nc1c(Cl)cccc1Cl,inactive: > 100 µM
5,COc1cccc(C2c3cc4c(cc3OC(O)(CO)C2C(=O)O)OCO4)c1.COc1cccc(C2c3cc4c(cc3OC3(O)COC(=O)C23)OCO4)c1 (stereo not drawn),inactive: > 100 µM
6,Cc1cccc(/C(Br)=C2/OC(=O)c3ccccc32)c1,inactive: > 100 µM
7,CCCCSC1=N/C(=C\c2ccc(N(C)C)cc2)C(=O)N1,inactive: 30 µM
8,CCOC(=O)Cn1c(=O)c2nc(SC)sc2n(-c2ccccc2)c1=S,inactive: 14.3 µM
9,CCCCc1ccc(-n2c(C)c(COC(=O)NC)c(COC(=O)NC)c2C)cc1,inactive: 10.3 µM
10,CCOC(=O)c1ccc2c(c1)nc1n2C(c2c(F)cccc2F)SC1 (stereo not drawn),inactive: 25 µM
11,C(=N\c1ccc(-c2nc3ccccc3[nH]2)cc1)/c1cccs1,inactive: > 100 µM
12,c1ccc(P(CCP(CCP(c2ccccc2)c2ccccc2)c2ccccc2)CCP(c2ccccc2)c2ccccc2)cc1 (stereo not drawn),inactive: 6.85 µM
13,CC1(C)C2CCC(=O)C1CC2 (stereo not drawn),inactive: > 100 µM
14,N#CCC(=O)N/N=C(\C(=O)Nc1ccc(Cl)c(Cl)c1)C1CN(c2ccccc2)N=C1N (stereo not drawn),inactive: > 100 µM
15,CCOC(=O)C1=C(C(C)=O)CSC(c2ccccc2)=N1,inactive: > 100 µM
16,Cc1ccc(S(=O)(=O)OC2CC(C(C)(C)C)CCC2c2ccccc2)cc1 (stereo not drawn),inactive: 79.1 µM
17,CCCCOC(=O)C1C(c2ccc(Cl)cc2)NC(c2ccc(Cl)cc2)C(C(=O)OCCCC)S1(=O)=O (stereo not drawn),inactive: > 100 µM
18,C[C@H](O)C(=O)SC[C@H](NC(=O)CC[C@@H](N)C(=O)O)C(=O)NCC(=O)O,inactive: > 100 µM
19,CN1CCC/C1=C1\C(=O)c2cccn2C1=O,inactive: > 100 µM
20,O=C(O)CCC1(Br)CCCCC(Br)C1=O (stereo not drawn),inactive: > 100 µM
21,CC(=O)C1=NN(c2ccccc2)C2(S1)SC(c1ccccc1)(c1ccccc1)c1ccccc12 (stereo not drawn),inactive: > 100 µM
22,CCOC(=O)C1Cc2c(ccc(OC)c2OC)C(=O)C1N (stereo not drawn),inactive: > 100 µM
23,Cc1ccc(S(=O)(=O)NC(=O)NS(=O)(=O)O)cc1,inactive: > 100 µM
24,C=C(C)C(=O)O[C@H]1CC2=CC(CC(C)=C[C@H]3OC(=O)C(=C)C13)OC2=O (stereo partly drawn),inactive: > 100 µM

row,Compound,GI50
1,CCN1CCC(O)(/C=C/c2ccc(C)cc2C)C(C(=O)/C=C/c2ccc(C)cc2C)C1 (stereo not drawn),inactive: 3.33 µM
2,NC(=S)N/N=C1/CN(c2ccc(Cl)c(Cl)c2)CC(=O)C1c1nc2ccccc2s1 (stereo not drawn),inactive: 37.7 µM
3,O=C(O)c1ccccc1/C=N/N=C1c2ccccc2-c2ccccc21,inactive: 25.1 µM
4,O=[N+]([O-])c1cc2c([N+](=O)[O-])cccc2o1,inactive: 20 µM
5,CC(=O)OCC1OC(N2C(C)=C(C(C)=O)C(c3ccc(Cl)cc3)C(C#N)=C2S)C(OC(C)=O)C(OC(C)=O)C1OC(C)=O (stereo not drawn),inactive: > 100 µM
6,COc1ccc(C(=O)NCCN(C)C)c2nc3ccccc3nc12,inactive: 3.78 µM
7,C/C=C(\C)c1cc(O)c(C)c2c1Oc1cc(O)c(Cl)c(C)c1C(=O)O2,inactive: 38 µM
8,Cc1cc(C)nc(NS(=O)(=O)c2ccc(NC(=O)c3cccc4c(Nc5ccc(S(=O)(=O)Nc6nc(C)cc(C)n6)cc5)c5ccccc5nc34)cc2)n1,inactive: 20.8 µM
9,N#Cc1nc(-c2ccc(-c3nc(C#N)c(N)o3)cc2)oc1N,inactive: > 10 µM
10,COc1ccc(-c2ccccc2)c2[nH]c3c(c12)CCNC3=O,inactive: > 100 µM
11,COc1ccc(-c2c3c(n(C4OC(COC(C)=O)C(OC(C)=O)C(OC(C)=O)C4OC(C)=O)c(=S)c2C#N)CCCC3)cc1 (stereo not drawn),inactive: > 100 µM
12,COc1cc(C2(c3ncc[nH]3)SSSCC2O)ccc1O (stereo not drawn),inactive: > 69.3 µM
13,CCN(CC)CCN(/C(=N/c1ccccc1)N1CCCCC1)c1ccccc1,inactive: 12 µM
14,N=c1oc2c(Br)cc(Br)cc2cc1C(=O)Nc1ccccn1,inactive: 77.6 µM
15,CCOc1ccc(/N=N/c2ccc3cc(/C(C)=N/NC(=O)/C(C#N)=C\c4ccc(N(CCC#N)CCC#N)cc4)c(=O)oc3c2)cc1,inactive: > 10 µM
16,COc1ccc(/N=C/C=C/Nc2ccc(OC)cc2)cc1,inactive: 13 µM
17,C=CCN1C(=O)/C(=C/c2ccc(C)cc2)NC1=S,inactive: > 100 µM
18,CC1(C)C(CC(=O)O)CCCC1CC(=O)O (stereo not drawn),inactive: > 100 µM
19,N#CC(N)(C(=O)C(=O)NCCCNC(=O)C(=O)C(N)(C#N)c1ccc(Cl)cc1)c1ccc(Cl)cc1 (stereo not drawn),inactive: > 100 µM
20,O=C1CSC(c2c[nH]c3ccccc23)N1c1cccc([N+](=O)[O-])c1 (stereo not drawn),inactive: > 100 µM
21,O=C1OC(c2ccccc2)=N/C1=C\c1ccc(N(CCCl)CCCl)cc1,inactive: > 100 µM
22,C[N+]1([O-])C2CCC1CC(OC(=O)C(CO)c1ccccc1)C2 (stereo not drawn),inactive: > 100 µM
23,COc1ccc2c3c([nH]c2c1CC=C(C)C)C(=O)C=C(C)C3=O,inactive: > 25 µM
24,C/C(CC(=O)Nc1ccc(Cl)cc1)=N\NC(N)=S,inactive: > 100 µM

row,Compound,GI50
1,CCC(=O)O[C@H]1CC[C@H]2[C@@H]3CCC4=C/C(=N/OC(=O)c5cccc6c(=O)c7ccccc7[nH]c56)CC[C@]4(C)[C@H]3CC[C@]12C,inactive: 34.4 µM
2,CC1=CP(=O)(c2ccccc2)C=C(C)C1=C(Cl)Cl (stereo not drawn),inactive: 5.83 µM
3,CC1C(c2ccccc2)NC(c2ccccc2)CC1(N)C#N (stereo not drawn),inactive: > 100 µM
4,CC(C)[C@H](NC(=O)OCc1ccccc1)C(=O)N[C@H](/C=C/C(=O)OC(C)(C)C)CO,inactive: > 100 µM
5,CCCCCCCCCCCCCCCc1ccc(OCC(O)CO)cc1 (stereo not drawn),inactive: > 100 µM
6,COc1cc(Oc2nc3cc(F)c(F)cc3nc2-c2ccccc2)cc(OC)c1OC,inactive: > 100 µM
7,CCOP(=O)(OCC)/C(=C/n1c(=S)[nH]c2ccccc21)C(=O)OC,inactive: > 100 µM
8,CC1=CCC2(C#N)CCC1C2=O (stereo not drawn),inactive: > 100 µM
9,CC(C)C(C/C=C1\CC(CO)(COC(=O)c2ccccc2)OC1=O)C(C)C (stereo not drawn),inactive: 11 µM
10,COC(=O)[C@]1(C)CCC[C@]2(C)C3CC4OOC3(C=C4C(C)(C)O)CCC21 (stereo partly drawn),inactive: > 100 µM
11,COc1cc2c(cc1O)[C@H](C)C(c1ccc(OC)c(OC)c1)O2 (stereo partly drawn),inactive: > 100 µM
12,CC(C)C(C/C=C1/CC(CO)(COC(=O)CC(C(C)C)C(C)C)OC1=O)C(C)C (stereo not drawn),inactive: 11.2 µM
13,O=C(/C=C/c1ccc(O)c(O)c1)OCCCOC(=O)/C=C/c1ccc(O)c(O)c1,inactive: 35.6 µM
14,C=CCOn1c(C=C)nc2c(C)cccc21,inactive: 4.28 µM
15,Cc1cccc2[n+]1[C@H]1[C@H]([C@@H]3O[C@H]1c1ccccc13)[S+]([O-])N2 (stereo partly drawn),inactive: 84.3 µM
16,CC(=O)OC(C)c1cc2c(s1)C(=O)c1scc(C(C)OC(C)=O)c1C2=O (stereo not drawn),inactive: 1.76 µM
17,Nc1nc(=O)c2cc(NCc3ccc(C(=O)NC(CCC(=O)O)C(=O)O)cc3)ccc2[nH]1 (stereo not drawn),inactive: > 100 µM
18,O=Cc1c(Cn2ccnc2)c2cc([N+](=O)[O-])ccc2n1Cc1ccccc1,inactive: 58.9 µM
19,COC(=O)c1cc(Br)c(Br)n1C,inactive: > 100 µM
20,O=C1C=C(N2CC2)C(=O)C=C1N1CC1,inactive: 1.5 µM
21,C[C@H](CS)C(=O)N1c2ccccc2C[C@H]1C(=O)O,inactive: > 100 µM
